# According to PubChem BioAssay AID2546 (National Center for Advancing Translational Sciences (NCATS), 2010):
# Screen size: about 310,000 compounds; about 11,000 (3.5%) were called active. The inconclusive results got no clear call from the source; some entries with a clear call stand among them for comparison. The call rests on the fitted dose curve; in most records, active means well fitted inhibition curve with a large enough effect; inconclusive means small, poorly fitted or top-dose-only effect, or effect the other way; inactive means flat fitted curve, though single readings scatter. Potencies of inconclusive entries are left out as doubtful fits.
# Assay: VP16 counterscreen qHTS for inhibitors of ROR gamma transcriptional activity;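 further: Gal4-VP16 expression switched on by copper sulfate through the metallothionein promoter; nearly all actives have a fitted effect of over 50% in size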
# Details: Drosophila S2 Gal4-VP16 UAS-luciferase, luminescence, 20 h; activity, negative = inhibition: at 53.6 µM (top of the series)
# On the % scale 0 is the no-effect control and ±100 the full control effect; potency means the concentration at half of the fitted maximal effect; tags describe the fitted curve by direction and shape.
SMILES,Potency,"activity, negative = inhibition"
O=C(c1ccccn1)c1conc1C(=O)c1ccc(Br)cc1,"inconclusive [inhibitor, single point]",–
CN(CC(=O)Nc1ccc(N2CCOCC2)cc1)CC(=O)Nc1ccc(C(F)(F)F)cc1,–,inactive: -8.55% [at 10 µM]
CC(=O)c1ccc(N2CCN(C(=O)c3ccc4ccccc4n3)CC2)cc1,inactive,–
CC(=O)c1cccc(N/C=C\C(=O)c2ccc(C)cc2)c1,active: 8.91 µM,–
Nc1nc(SCc2ccccc2)ns1,"inconclusive [activator, partial curve]",–
COc1cc(OC)c2c(-c3ccccc3)cc(=O)oc2c1C(CCN1CCCC1)c1ccc2c(c1)OCO2 (centres undefined),"inconclusive [inhibitor, partial curve]",–
COc1cc(NC(=O)c2ccccc2F)ccc1NC(=O)c1cc2ccccc2o1,active: 12.6 µM,–
O=C(CCNC(=O)c1ccc(Cl)cc1)Nc1c(F)c(F)cc(F)c1F,"inconclusive [activator, single point]",–
OCC(O)C(O)C(O)CO (centres undefined),"inconclusive [inhibitor, single point]",–
O=C(NCCc1ccccc1)c1cccc(N2CCCC2=O)c1,active: 10 µM,–
C[C@@H](CO)NC(=O)c1ccc2c3n(nc2c1)-c1ccccc1CO3,"inconclusive [inhibitor, partial curve, poor fit]",–
CCCCNC(=S)NNC(=O)c1csc(C)c1C,active: 14.1 µM,–
COC(=O)c1ccccc1NC(=S)NC(=O)c1ccccc1,"inconclusive [inhibitor, single point]",–
CCOC(=O)c1cn(Cc2ccc(Br)cc2)nn1,"inconclusive [activator, single point]",–
Cc1noc(C)c1C(=O)OCC(=O)c1cc(C)n(Cc2ccccc2Cl)c1C,"inconclusive [inhibitor, single point]",–
Cc1cc(=O)n2[nH]cc(-c3ccccc3)c2n1,"inconclusive [inhibitor, single point]",–
CC(C)C[C@@H](NC(=O)[C@H](Cc1ccccc1)NC(=O)c1cnccn1)B(O)O,"inconclusive [inhibitor, full curve]",–
COc1ccc(C(=O)O)c(OC)n1,"inconclusive [inhibitor, full curve, poor fit]",–
Cc1ccc(NC(=S)N/N=C/c2c(C)[nH]c3ccccc23)cc1,active: 3.98 µM,–
CC(CCc1ccccc1)NS(=O)(=O)c1ccc(Cl)c(C(=O)O)c1 (centres undefined),inactive,–
CCOc1cc(NC(=S)NCC2CCCO2)c(OCC)cc1NC(=O)c1ccc(OC)cc1 (centres undefined),active: 10 µM,–
O=C(Nc1ncc(Cl)cn1)c1cccs1,inactive,–
CCN(CC)c1ccc(S(=O)(=O)N2CCOCC2)cc1NC(=O)CNCc1ccccc1,inactive,–
COc1ccc(CN2CCN(C(=O)CN3C(=O)C4C5C=CC(C5)C4C3=O)CC2)c(OC)c1OC (centres undefined),active: 6.31 µM,–
C/C(=N\NC(=O)c1ccc(O)cc1)c1ccc(N2CCOCC2)cc1,"inconclusive [inhibitor, full curve]",–

SMILES,Potency,"activity, negative = inhibition"
CC(C)=C1C2CCC1C1C(=O)N(NC(=O)COc3ccc(C(C)(C)C)cc3)C(=O)C21 (centres undefined),"inconclusive [inhibitor, single point]",–
CC1(C)CC(=O)c2cc(NC(=O)c3ccccc3)c(=O)oc2C1,inactive,–
CCN(CC)c1ccc(NC(=S)NC(=O)c2cccs2)cc1,active: 5.01 µM,–
NNC(=O)C=C1CCN(c2ncc(C(F)(F)F)cc2Cl)CC1,inactive,–
CC(NCc1cc(Br)ccc1OCC(N)=O)C12CC3CC(CC(C3)C1)C2 (centres undefined),inactive,–
CCC(C)c1c(O)nc(SCc2ccccc2)[nH]c1=O (centres undefined),"inconclusive [activator, single point]",–
CC1=Nc2ccccc2/C1=C/c1nc(-c2ccc(C)s2)oc1O,"inconclusive [activator, single point]",–
CN(C)CC(=O)N1c2ccccc2CCc2ccc(NC(=O)c3ccc(N)cc3)cc21,active: 7.08 µM,–
C=CCNC(=S)NNC(=O)C(CCC(C)C)CC(C)(C)O (centres undefined),"inconclusive [inhibitor, single point]",–
COc1ccc(OC)c(NC(=O)c2cc3oc4ccccc4c3cc2O)c1,"inconclusive [inhibitor, single point]",–
C=CCc1c(C)nc(-c2ccccc2)nc1N/N=C(\C)c1ccc(N)cc1,inactive,–
COc1cc(/C=C2\SC(=Nc3ccccc3)N(Cc3ccco3)C2=O)ccc1OC(C)C(=O)O (centres undefined),inactive,–
CC(NC(N)=O)C(=O)Nc1ccc(Cl)c(S(=O)(=O)Nc2ccc(Cl)cc2)c1 (centres undefined),"inconclusive [inhibitor, partial curve, poor fit]",–
COc1ccc(NC(=S)N2CCN(C(c3ccccc3)c3ccccc3)CC2)c(OC)c1,"inconclusive [inhibitor, single point]",–
O=C(Nc1ccc2c(c1)OCO2)c1cnn2cccnc12,"inconclusive [inhibitor, single point]",–
CC(C)c1ccc(OCC(=O)N(c2ccccn2)C2CCCCC2)cc1,inactive,–
O=C(O)CCC(=O)Nc1ccc(C(=O)OC2CCCCC2)cc1,"inconclusive [inhibitor, partial curve]",–
Cc1ccc(-c2nnc(N3CCCCCC3)c3ccccc23)cc1,"inconclusive [inhibitor, single point]",–
N#Cc1ccc(OCc2nnc(SCC(=O)c3ccccc3)n2-c2ccccc2)cc1,inactive,–
O=c1c(-c2ccccc2)c1-c1ccccc1,active: 0.794 µM,–
Cc1nc2ccccc2n1CC(O)COCC1CC=CCC1 (centres undefined),"inconclusive [inhibitor, single point]",–
CCn1c(COc2ccc(C(C)C)cc2)nnc1SCC(=O)Nc1nccs1,"inconclusive [inhibitor, single point]",–
O=C1O[C@H](CN2CCOCC2)CN1/N=C\c1ccc([N+](=O)[O-])o1,inactive,–
CCNC(=S)N/N=C/c1cccs1,active: 1.41 µM,–
